Source: the supplement of paper PMC8728848
This is one part of the list.

Assays:
Test in all cases: glycan array binding signal (z-score within array); higher = stronger binding
Settings in all cases: glycan notation: IUPAC condensed, linker removed
[1] = molecular target: GlcNAc(a1-3)Gal(b1-4)GlcNAc
How it was run: (§1)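 Glycan array data came from 3228 arrays in the Consortium for Functional Glycomics database, and only arrays with an available protein sequence were kept. Glycan names were put into IUPAC-condensed notation, and columns mapping to the same glycan were averaged. The binding signal is a within-array Z-score, averaged across arrays of one protein sequence run at different concentrations or buffers and across linkers. A negative Z-score can be read as non-binding.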

[2] = molecular target: GlcNAc(a1-6)Gal(b1-4)GlcNAc
How it was run: as §1

[3] = molecular target: GlcNAc(b1-2)Gal(b1-3)GalNAc
How it was run: as §1

[4] = molecular target: GlcNAc(b1-2)Man(a1-3)[GlcNAc(b1-2)Man(a1-6)]Man(b1-4)GlcNAc(b1-4)GlcNAc
How it was run: as §1

GlcNAc(b1-3)Gal = molecular target: GlcNAc(b1-3)Gal
How it was run: as §1

[5] = molecular target: GlcNAc(b1-3)Gal(b1-3)GalNAc
How it was run: as §1

GlcNAc(b1-3)Gal(b1-4)Glc = molecular target: GlcNAc(b1-3)Gal(b1-4)Glc
How it was run: as §1

[6] = molecular target: GlcNAc(b1-3)Gal(b1-4)GlcNAc
How it was run: as §1

[7] = molecular target: GlcNAc(b1-3)Gal(b1-4)GlcNAc(b1-3)Gal(b1-4)GlcNAc
How it was run: as §1

GlcNAc(b1-3)GalNAc = molecular target: GlcNAc(b1-3)GalNAc
How it was run: as §1

[8] = molecular target: GlcNAc(b1-3)[GlcNAc(b1-6)]Gal(b1-4)GlcNAc
How it was run: as §1

[9] = molecular target: GlcNAc(b1-3)[GlcNAc(b1-6)]GalNAc
How it was run: as §1

[10] = molecular target: GlcNAc(b1-3)[GlcNAc(b1-6)]GlcNAc(b1-4)GlcNAc
How it was run: as §1

[11] = molecular target: GlcNAc(b1-4)Gal(b1-4)GlcNAc
How it was run: as §1

[12] = molecular target: GlcNAc(b1-4)GlcNAc(b1-4)GlcNAc
How it was run: as §1

[13] = molecular target: GlcNAc(b1-4)GlcNAc(b1-4)GlcNAc(b1-4)GlcNAc(b1-4)GlcNAc
How it was run: as §1

[14] = molecular target: GlcNAc(b1-4)GlcNAc(b1-4)GlcNAc(b1-4)GlcNAc(b1-4)GlcNAc(b1-4)GlcNAc
How it was run: as §1

[15] = molecular target: GlcNAc(b1-4)[GlcNAc(b1-6)]GalNAc
How it was run: as §1

[16] = molecular target: GlcNAc(b1-6)Gal(b1-4)GlcNAc
How it was run: as §1

GlcNAc(b1-6)GalNAc = molecular target: GlcNAc(b1-6)GalNAc
How it was run: as §1

Kdn(a2-3)Gal(b1-3)GlcNAc = molecular target: Kdn(a2-3)Gal(b1-3)GlcNAc
How it was run: as §1

Kdn(a2-3)Gal(b1-4)GlcNAc = molecular target: Kdn(a2-3)Gal(b1-4)GlcNAc
How it was run: as §1

[17] = molecular target: Man(a1-2)Man(a1-2)Man(a1-3)Man
How it was run: as §1

[18] = molecular target: Man(a1-2)Man(a1-2)Man(a1-6)[Man(a1-3)]Man
How it was run: as §1

Man(a1-2)Man(a1-3)Man = molecular target: Man(a1-2)Man(a1-3)Man
How it was run: as §1

[19] = molecular target: Man(a1-2)Man(a1-3)[Man(a1-2)Man(a1-6)]Man
How it was run: as §1

[20] = molecular target: Man(a1-2)Man(a1-3)[Man(a1-2)Man(a1-6)]Man(a1-6)[Man(a1-2)Man(a1-2)Man(a1-3)]Man(b1-4)GlcNAc(b1-4)GlcNAc
How it was run: as §1

[21] = molecular target: Man(a1-2)Man(a1-3)[Man(a1-2)Man(a1-6)]Man(a1-6)[Man(a1-3)[Man(a1-6)]Man(a1-6)]Man(b1-4)GlcNAc(b1-4)GlcNAc
How it was run: as §1

[22] = molecular target: Man(a1-2)Man(a1-3)[Man(a1-6)]Man(a1-6)[Man(a1-2)Man(a1-3)]Man(b1-4)GlcNAc(b1-4)GlcNAc
How it was run: as §1

[23] = molecular target: Man(a1-2)Man(a1-6)[Man(a1-3)]Man(a1-6)[Man(a1-2)Man(a1-2)Man(a1-3)]Man(b1-4)GlcNAc(b1-4)GlcNAc
How it was run: as §1

Man(a1-3)[Man(a1-6)]Man = molecular target: Man(a1-3)[Man(a1-6)]Man
How it was run: as §1

[24] = molecular target: Man(a1-3)[Man(a1-6)]Man(a1-6)[Man(a1-3)]Man(b1-4)GlcNAc(b1-4)GlcNAc
How it was run: as §1

[25] = molecular target: Man(a1-3)[Man(a1-6)]Man(b1-4)GlcNAc(b1-4)GlcNAc
How it was run: as §1

Man(b1-4)GlcNAc = molecular target: Man(b1-4)GlcNAc
How it was run: as §1

Neu5Ac(a2-3)Gal = molecular target: Neu5Ac(a2-3)Gal
How it was run: as §1

[26] = molecular target: Neu5Ac(a2-3)Gal(b1-3)GalNAc
How it was run: as §1

[27] = molecular target: Neu5Ac(a2-3)Gal(b1-3)GalNAc(b1-3)Gal(a1-4)Gal(b1-4)Glc
How it was run: as §1

B1: PMA (Polygonatum multiflorum) (protein)
chain: LLTTTLFVFISSTRSLASTNVLYSDVGNAILNAKESLIYGDYRLDMQSDCNLVLYNKAAPYWASGTRWSWGGNCHLNLQSNGELVMYAYLGRTRIAIWRSGIISATGSYALVLKYDGALHVHGPSLWSTNATGPTTPTTASWSIDSTLWSGDVATIGPTIANGDYKLELLDTCNLTLSNTKTGQVLWYTNTTDWVHDCYVNIEGNGELKIKYLGGATLWSNKVGAGYTNNYVLGLRPDGKLDTYNAPIWSPTIGPGVHVAPAVYNASSNAVAAEGNGEKIAMVTGRAKNST
glycan array binding signal (z-score) [1]: -0.263
glycan array binding signal (z-score) [2]: -0.257
glycan array binding signal (z-score) [3]: -0.242
glycan array binding signal (z-score) [4]: 5.03
glycan array binding signal (z-score) (GlcNAc(b1-3)Gal): -0.263
glycan array binding signal (z-score) [5]: -0.241
glycan array binding signal (z-score) (GlcNAc(b1-3)Gal(b1-4)Glc): -0.237
glycan array binding signal (z-score) [6]: -0.244
glycan array binding signal (z-score) [7]: -0.135
glycan array binding signal (z-score) (GlcNAc(b1-3)GalNAc): -0.259
glycan array binding signal (z-score) [8]: -0.243
glycan array binding signal (z-score) [9]: -0.257
glycan array binding signal (z-score) [10]: -0.247
glycan array binding signal (z-score) [11]: -0.257
glycan array binding signal (z-score) [12]: -0.254
glycan array binding signal (z-score) [13]: -0.25
glycan array binding signal (z-score) [14]: -0.262
glycan array binding signal (z-score) [15]: -0.24
glycan array binding signal (z-score) [16]: -0.255
glycan array binding signal (z-score) (GlcNAc(b1-6)GalNAc): -0.246
glycan array binding signal (z-score) (Kdn(a2-3)Gal(b1-3)GlcNAc): -0.247
glycan array binding signal (z-score) (Kdn(a2-3)Gal(b1-4)GlcNAc): -0.134
glycan array binding signal (z-score) [17]: 4.06
glycan array binding signal (z-score) [18]: 5.65
glycan array binding signal (z-score) (Man(a1-2)Man(a1-3)Man): 2.54
glycan array binding signal (z-score) [19]: 4.98
glycan array binding signal (z-score) [20]: 1.72
glycan array binding signal (z-score) [21]: 3.03
glycan array binding signal (z-score) [22]: 2.76
glycan array binding signal (z-score) [23]: 4.46
glycan array binding signal (z-score) (Man(a1-3)[Man(a1-6)]Man): 1.01
glycan array binding signal (z-score) [24]: 2.16
glycan array binding signal (z-score) [25]: 4.4
glycan array binding signal (z-score) (Man(b1-4)GlcNAc): -0.214
glycan array binding signal (z-score) (Neu5Ac(a2-3)Gal): -0.246
glycan array binding signal (z-score) [26]: -0.244
glycan array binding signal (z-score) [27]: -0.226
